# Results taken from PubChem BioAssay (NCI).
# Several values for one entry are separate records, joined by “and”; a condition that tells them apart may be missing. Equal entries are not always repeated.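 Dose response: 5 concentrations. Exposure: 48 h. Format: 96-well plates. Endpoint: linear interpolation; highest concentration if not reached. The concentration for 50% growth inhibition is given as GI50. The concentration for full growth arrest is given as TGI.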
# System: NCI-H322M lung
# Experiment: NCI anticancer screen, dose series, 48 h
SMILES,TGI,GI50
COC(=O)[C@@]12OC[C@]34[C@H]([C@@H](O)[C@@H]1O)[C@@]1(C)CC(=O)C(O)=C(C)[C@@H]1C[C@H]3OC(=O)[C@H](OC(=O)/C=C(\C)C(C)C)[C@@H]24,0.0915 µM and 0.325 µM and 0.0462 µM,–
CCCC(=O)Nc1cc(C(=O)N2C[C@H]3C[C@@]34C2=CC(=O)c2[nH]cc(C)c24)n(COC)c1,2.77 µM and 10.5 µM,0.276 µM
O=C(/C=C/c1ccccc1)c1ccc(Cl)cc1Cl,> 100 µM,–
NC1=Nc2cc(C(F)(F)F)ccc2Sc2nc3ccccc3n21,> 100 µM,–
Nc1nc(N)c2nc(CN(C=O)c3ccc(C(=O)O)cc3)cnc2n1,> 100 µM,–
NCCCN(CCCCN(CCCN)CCCc1ccccc1)CCCc1ccccc1,12.7 µM,–
CC(C)(Oc1ccc(-c2cccc3ccccc23)cc1)C(=O)O,> 100 µM,–
CC[C@H](C)[C@H](NC(=O)C12C3C4C1C1C2C3C41NC)C(=O)N(C)[C@H](C[C@@H](OC(C)=O)c1nc(C(=O)N[C@@H](Cc2ccccc2)C[C@H](C)C(=O)OC)cs1)C(C)C (stereo not given in full),> 14.3 µM,0.895 µM
S=C(NCc1ccccn1)N/N=C/c1ccccn1,> 100 µM,–
COc1cc2c(oc(=O)c3c4occc4cc(OC)c23)c2cccc(O)c12,> 100 µM,–
CN1CCCCC1CCN1c2ccccc2Sc2ccc(Br)cc21 (stereo not given),11.2 µM,3.05 µM
CNC(=O)[C@H](Cc1ccccc1)NC(=O)N(CCC#N)CCN(C(=O)N[C@@H](Cc1ccccc1)C(=O)OC)c1ccccc1,> 100 µM,–
O=c1cc(NNc2cccc3ccccc23)[nH]c(=O)[nH]1,30.1 µM,–
O=c1cc(-c2ccccc2)oc2ccc(Cl)cc12,> 100 µM,–
CC(C)(C)N/N=C(/Cc1nc2c3c(ccc2[nH]c1=O)C(=O)c1ccccc1C3=O)C(=O)NC1=C(Cl)C(=O)c2ccccc2C1=O,> 100 µM,–
COc1cc(C(=O)c2cnc(-c3c[nH]c4cccc(C)c34)[nH]2)cc(OC)c1OC,> 100 µM,0.0168 µM
CCCC1C[C@H]2CCCCN2[C@H]2CCCN12 (stereo not given in full),> 100 µM,–
Clc1cc(N/N=C(\c2ccccc2)c2ccccn2)ncn1,2.03 µM,–
CCOC(=O)C1=C(O)CC(=O)N=C1N1CCCC1,> 100 µM,–
COc1cccc(C2CC(=O)Nc3c2c(C)nn3-c2nc3ccccc3[nH]2)c1OC (stereo not given),> 100 µM,9.41 µM
Cc1cc(NC(=O)NCc2ccc(N3C(N)=NC(N)=NC3(C)C)cc2)ccc1S(=O)(=O)F,> 100 µM,6.58 µM
CC(C)=CCC[C@@H](C)C1=C(O)C(N[C@H](C)c2ccccc2)=C(C)C(=O)C1=O,27.3 µM,–
Oc1c(Br)cc2c(c1Br)-c1c(c(O)c3c4c1=NCCC=4C=N3)NCC2,35.6 µM,–
O=c1c(I)c[nH]cc1I,> 100 µM,> 100 µM
Nc1nc(SCc2ccccc2Cl)c2ncn(C3OC(CO)C(O)C3O)c2n1 (stereo not given),> 100 µM,–

SMILES,TGI,GI50
CC(C)=C[C@@H]1C[C@H](C)[C@H]2CC[C@H](C)c3c(O)c(OC4OC(C)C(O)C(O)C4O)c(C)c1c32 (stereo not given in full),26.7 µM,13.6 µM
Cc1sc(/N=C/C2=C(O)CC(C)(C)CC2=O)nc1-c1ccccc1,> 100 µM,–
COC1C(OC(=O)c2ccc(C)[nH]2)C(O)C(Oc2ccc3c(O)c(NC(=O)c4ccc(O)c(CC=C(C)C)c4)c(=O)oc3c2Cl)OC1(C)C (stereo not given),37.9 µM,–
Nc1cccc(-c2cc(=O)c3cc4c(cc3[nH]2)OCO4)c1,> 100 µM,–
NC(=S)NNCC(=O)CC(O)(C(F)(F)F)C(F)(F)Cl (stereo not given),> 100 µM,–
[CH3][Sn]([CH3])([CH3])[S]C(=S)N1CCOCC1,> 100 µM,6.05 µM
NC(=NCCCCCCN=C(N)/N=C(\N)Nc1ccc(Cl)cc1)/N=C(\N)Nc1ccc(Cl)cc1,6.68 µM,1.56 µM
CCCCCCCCCCCC1N=C(N)N=C(N)N1c1cccc(Br)c1 (stereo not given),5.48 µM,1.17 µM
NNc1c(C(N)=O)c2c(N)ncnc2n1C1OC(CO)C(O)C1O (stereo not given),9.77 µM and 2.6 µM,0.11 µM
Cc1ccc(S(=O)(=O)OC[C@@]2(C)CC[C@]3(C)CC[C@]4(C)C(=C3C2)C=C[C@@H]2[C@@]3(C)CCCNC(C)(C)[C@@H]3CC[C@]24C)cc1,3.01 µM,1.62 µM
CCN(CC)c1ccc(/C=N/NC(=O)Cc2ccc(Nc3ccnc(C(F)(F)F)c3)cc2)c(O)c1,> 100 µM,0.429 µM
CCOC(=O)Cc1c(C(=O)OCC)[n+](=O)c2cc(Cl)c(Cl)cc2n1[O-],17.4 µM,–
CC(=O)OCC1OC(OCCCOP(=O)(OCCC#N)OCC2OC(n3cnc4c(N)ncnc43)C(OC(=O)c3ccccc3)C2OC(=O)c2ccccc2)C(OC(C)=O)C(OC(C)=O)C1OC(C)=O (stereo not given),> 100 µM,–
CNC(=O)OCc1cnc([N+](=O)[O-])n1C,> 100 µM,–
C/C(=C\C(=O)Nc1ccc2n[nH]nc2c1)Nc1ccc2n[nH]nc2c1,> 100 µM,–
O/N=C\c1c2c(cc3c1CCC3)CCC2,> 100 µM,–
Nc1nc(SCc2ccccc2CCl)c2[nH]cnc2n1,51.4 µM,15 µM
OCCc1ccsc1-c1sc(-c2cc(CCO)c(-c3sc(-c4cc(CCO)c(-c5sccc5CCO)s4)cc3CCO)s2)cc1CCO,2.81 µM,–
OCCCN=C1CCCCC1,> 100 µM,–
Nc1ncn([C@H]2CC(O)[C@@H](CO)S2)c(=O)n1 (stereo not given in full),> 100 µM,26.4 µM
CC(=O)CCC1(c2ccccc2)OC(=O)C(C#N)=C1c1ccccc1 (stereo not given),> 100 µM,–
CCN(CC)c1c(C(C)(C)C)c(=O)n2ccsc2c1OC(C)=O,32.3 µM,–
CN1NC(c2ccc(Cl)cc2)=C(C#N)C(=O)CC1c1ccccc1 (stereo not given),> 100 µM,–
Cc1cccc2c(=O)c3c(O)cc(O)cc3n(C)c12,> 100 µM,–
